# Reference: the supplement of paper PMC11876631
# Numbering of substitutions follows the chain as printed. Names may count otherwise. ± gives the standard deviation of the averaged measurements. Laboratory Escherichia coli strains with one amino-acid change in an essential protein, pooled on minimal glucose agar with carbenicillin or gentamicin at twice the control MIC (plus kanamycin and chloramphenicol for the plasmids), 48 h. Fold change of barcode share against drug-free plates; higher = less susceptible. Active = above 20 in both replicates (the paper's putatively resistant). '<' = one read or none on drug, '>' = one read or none on a drug-free plate. Shares are relative, so most strains fall below 1 when a few take over. Listed are strains with at least 15 reads on both drug-free plates, and hits; most hits rest on fewer reference reads. Replicate rank correlation about 0.5. Edits are read from barcodes.
# B1: nadA V137A (protein)
# chain: MSVMFDPDTAIYPFPPKPTPLSIDEKAYYREKIKRLLKERNAVMVAHYYTDPEIQQLAEETGGCISDSLEMARFGAKHPASTLLVAGVRFMGETAKILSPEKTILMPTLQAECSLDLGCPVEEFNAFCDAHPDRTVAVYANTSAAVKARADWVVTSSIAVELIDHLDSLGEKIIWAPDKHLGRYVQKQTGGDILCWQGACIVHDEFKTQALTRLQEEYPDAAILVHPESPQAIVDMADAVGSTSQLIAAAKTLPHQRLIVATDRGIFYKMQQAVPDKELLEAPTAGEGATCRSCAHCPWMAMNGLQAIAEALEQEGSNHEVHVDERLRERALVPLNRMLDFAATLRG
# B2: nadA V225A (protein)
# chain: B1 chain with A137V, V225A
# B3: nadA V138A (protein)
# chain: B1 chain with A137V, V138A
# B4: nadA L224A (protein)
# chain: B1 chain with A137V, L224A
# B5: murI I75D (protein)
# chain: MATKLQDGNTPCLAATPSEPRPTVLVFDSGVGGLSVYDEIRHLLPDLHYIYAFDNVAFPYGEKSEAFIVERVVADVTAVQERYPLALAVVACNTASTVSLPALREKFDFPVVGVVPAIKPAARLTANGIVGLLATRGTVKRSYTHELIARFANECQIEMLGSAEMVELAEAKLHGEDVSLDALKRILRPWLRMKEPPDTVVLGCTHFPLLQEELLQVLPEGTRLVDSGAAIARRTAWLLEHEAPDAKSADANIAFCMAMTPGAEQLLPVLQRYGFETLEKLAVLG
# B6: murI I75P (protein)
# chain: B5 chain with D75P
# B7: asnS I75W (protein)
# chain: MSVVPVADVLQGRVAVDSEVTVRGWVRTRRDSKAGISFLAVYDGSCFDPVQAVINNSLPNYNEDVLRLTTGCSVWVTGKVVASPGQGQQFEIQASKVEVAGWVEDPDTYPMAAKRHSIEYLREVAHLRPRTNLIGAVARVRHTLAQALHRFFNEQGFFWVSTPLITASDTEGAGEMFRVSTLDLENLPRNDQGKVDFDKDFFGKESFLTVSGQLNGETYACALSKIYTFGPTFRAENSNTSRHLAEFWMLEPEVAFANLNDIAGLAEAMLKYVFKAVLEERADDMKFFAERVDKDAVSRLERFIEADFAQVDYTDAVTILENCGRKFENPVYWGVDLSSEHERYLAEEHFKAPVVVKNYPKDIKAFYMRLNEDGKTVAAMDVLAPGIGEIIGGSQREERLDVLDERMLEMGLNKEDYWWYRDLRRYGTVPHSGFGLGFERLIAYVTGVQNVRDVIPFPRTPRNASF
# B8: asnS I75D (protein)
# chain: B7 chain with W75D
# B9: asnS M249Q (protein)
# chain: B7 chain with W75I, M249Q
# B10: asnS I75Q (protein)
# chain: B7 chain with W75Q
# B11: asnS L250A (protein)
# chain: B7 chain with W75I, L250A
# B12: asnS L250W (protein)
# chain: B7 chain with W75I, L250W
# Biological target: Escherichia coli (laboratory strain)
# Assay: barcode share on antibiotic plates over drug-free plates; higher = less susceptible
# Method: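 A pool of E. coli strains, each edited to carry one amino-acid change in an essential protein, was grown for 48 h on minimal glucose agar with or without antibiotic; strain barcodes were sequenced; mean of two replicates.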
# [1] = antibiotic: carbenicillin, 2× MIC (3.1 µg/mL)
# [2] = antibiotic: gentamicin, 2× MIC (MIC 0.45 µg/mL)
Protein,fold change of barcode share [1],fold change of barcode share [2]
B1,0.678 ± 0.42,0.0689 ± 0.014
B2,0.331 ± 0.091,0.0469 ± 0.05
B3,0.3 ± 0.094,0.288 ± 0.26
B4,0.655 ± 0.29,0.0668 ± 0.037
B5,0.464 ± 0.051,< 0.00743
B6,0.611 ± 0.63,< 0.00701
B7,0.342 ± 0.019,0.0549 ± 0.068
B8,0.277 ± 0.17,< 0.00391
B9,0.4 ± 0.043,< 0.00538
B10,0.389 ± 0.25,0.00992 ± 0.0014
B11,0.454 ± 0.043,0.00977 ± 0.0017
B12,0.287 ± 0.026,0.0127 ± 0.0074
